{"source": "the supplement of paper PMC12355420", "note": "Where a name gives a salt, the structure may show the parent alone. Some of the results follow. Cut-off read from the data, not from the text of the source: active = 0.5 or less and inactive = the rest. Many values rest on one well or one pass, so single values are uncertain."}
{"system": "HeLa VPS33A reporter cells", "experiment": "relative cell viability (CellMask signal) vs DMSO (fraction of DMSO); higher = less cytotoxic", "settings": "50 µM; 24 h"}
{"compound": "CCC1(c2cccc(O)c2)CCCCN(C)C1", "note": "(centres undefined) [Meptazinol HCl];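 for relative GAG core protein HA-SDC1 amount per cell number vs DMSO: HA-SDC1 level read out by In-Cell Western staining with an anti-HA antibody against the N-terminal tag, screening FDA-approved library drugs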;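 for relative cell viability (CellMask signal) vs DMSO: primary screen of an FDA-approved drug library in HeLa reporter cells in 96-well format, CellMask signal normalized to DMSO-treated wells set as 1, under 0.5 deemed highly cytotoxic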", "relative cell viability": 0.941}
{"compound": "Cc1c(N)nc(C(CC(N)=O)NCC(N)C(N)=O)nc1C(=O)NC(C(=O)NC(C)C(O)C(C)C(=O)NC(C(=O)NCCc1nc(-c2nc(C(=O)NCCC[S+](C)C)cs2)cs1)C(C)O)C(O[C@@H]1O[C@@H](CO)[C@@H](O)[C@H](O)[C@@H]1O[C@H]1O[C@H](CO)[C@@H](O)[C@H](OC(N)=O)[C@@H]1O)c1cnc[nH]1", "note": "(some centres undefined) [Bleomycin Sulfate]", "relative cell viability": 1.41}
{"compound": "Cc1cccc(C)c1NC(=O)CN1CCCC1=O", "note": "[Nefiracetam]", "relative cell viability": 1.28}
{"compound": "O=C([O-])C(Cl)Cl.[Na+]", "relative cell viability": 0.986}
{"compound": "CC(O)(CS(=O)(=O)c1ccc(F)cc1)C(=O)Nc1ccc(C#N)c(C(F)(F)F)c1", "note": "(centres undefined) [Bicalutamide]", "relative cell viability": 1.01}
{"system": "HeLa VPS33A R498W KI + HA-SDC1-FLAG", "experiment": "relative GAG core protein HA-SDC1 amount per cell number vs DMSO (fraction of DMSO); HeLa model of a glycosaminoglycan (GAG) storage disease; KI is knock-in and KO knock-out; SDC1 is syndecan 1; higher = more SDC1 (GAG core protein)", "settings": "50 µM; 24 h"}
{"compound": "C[C@@H]1CC[C@H]2[C@@H](C)C(=O)O[C@@H]3O[C@@]4(C)CC[C@@H]1[C@]32OO4", "note": "[Artemisinine]", "relative GAG core protein HA-SDC1 amount per cell number": "inactive: 0.923"}
{"compound": "CCN(C)C(=O)Oc1cccc([C@H](C)N(C)C)c1", "note": "[Rivastigmine Tartrate]", "relative GAG core protein HA-SDC1 amount per cell number": "inactive: 0.919"}
{"compound": "NCC(O)c1ccc(O)cc1", "note": "(racemic) [(+,-)-Octopamine HCl]", "relative GAG core protein HA-SDC1 amount per cell number": "inactive: 0.871"}
{"compound": "O=C(O[C@H]1C[N+]2(CCCOc3ccccc3)CCC1CC2)C(O)(c1cccs1)c1cccs1", "note": "[Aclidinium Bromide]", "relative GAG core protein HA-SDC1 amount per cell number": "inactive: 0.725"}
{"compound": "C[C@]12CCC(=O)C=C1C=C[C@@H]1[C@@H]2CC[C@@]2(C)[C@H]1CC[C@@]2(O)CCC(=O)O", "note": "[Potassium Canrenoate]", "relative GAG core protein HA-SDC1 amount per cell number": "inactive: 1.47"}
{"compound": "CC(NC(C)(C)C)C(=O)c1cccc(Cl)c1", "note": "(centres undefined) [Bupropion hydrochloride]", "relative GAG core protein HA-SDC1 amount per cell number": "inactive: 0.772"}
{"compound": "O=P1(N(CCCl)CCCl)NCCCO1", "note": "(centres undefined) [Cyclophosphamide monohydrate]", "relative GAG core protein HA-SDC1 amount per cell number": "inactive: 1.22"}
{"compound": "CC1C(=O)OC2C(O)C34C5OC(=O)C3(OC3OC(=O)C(O)C34C(C(C)(C)C)C5O)C12O", "note": "(centres undefined) [Ginkgolide C]", "relative GAG core protein HA-SDC1 amount per cell number": "inactive: 0.64"}
{"compound": "CN(C)Cc1c[nH]c2ccccc12", "note": "[Gramine]", "relative GAG core protein HA-SDC1 amount per cell number": "inactive: 0.673"}
{"compound": "Cn1c(COP(=O)(NCCBr)NCCBr)cnc1[N+](=O)[O-]", "relative GAG core protein HA-SDC1 amount per cell number": "inactive: 0.665"}
{"compound": "NCCCNCCSP(=O)(O)O", "note": "[Amifostine]", "relative GAG core protein HA-SDC1 amount per cell number": "inactive: 1.12"}
{"compound": "CN(C)C(=O)Oc1cccc([N+](C)(C)C)c1", "note": "[Neostigmine Bromide]", "relative GAG core protein HA-SDC1 amount per cell number": "inactive: 1.26"}
{"compound": "CC(=O)O[C@H]1C[C@@H]2CC[C@@H]3[C@H](CC[C@@]4(C)[C@H]3C[C@H]([N+]3(C)CCCCC3)[C@@H]4OC(C)=O)[C@@]2(C)C[C@@H]1[N+]1(C)CCCCC1", "note": "[Pancuronium dibromide]", "relative GAG core protein HA-SDC1 amount per cell number": "inactive: 0.722"}
{"compound": "CC(C)C[C@H]1C(=O)N2CCC[C@H]2[C@]2(O)O[C@](NC(=O)[C@@H]3C=C4c5cccc6[nH]c(Br)c(c56)C[C@H]4N(C)C3)(C(C)C)C(=O)N12", "note": "[Bromocriptine mesylate]", "relative GAG core protein HA-SDC1 amount per cell number": "active: 0.488"}
{"compound": "Nc1ccncc1", "note": "[4-Aminopyridine]", "relative GAG core protein HA-SDC1 amount per cell number": "inactive: 1.01"}
{"compound": "C[N+]1(C)CCCC(OC(=O)C(O)(c2ccccc2)c2ccccc2)C1", "note": "(centres undefined) [Mepenzolate Bromide]", "relative GAG core protein HA-SDC1 amount per cell number": "inactive: 1.03"}
{"compound": "C=C1C[C@@H]2[C@H](CC[C@]3(C)C(=O)CC[C@@H]23)[C@@]2(C)C=CC(=O)C=C12", "note": "[Exemestane]", "relative GAG core protein HA-SDC1 amount per cell number": "active: 0.309"}
{"compound": "CCOC(=O)c1cncn1[C@H](C)c1ccccc1", "note": "[Etomidate hydrochloride]", "relative GAG core protein HA-SDC1 amount per cell number": "inactive: 0.876"}
{"compound": "C#C[C@]1(O)C=C[C@H]2[C@@H]3CCC4=CC(=O)CC[C@@H]4[C@H]3CC[C@@]21CC", "note": "[Gestodene]", "relative GAG core protein HA-SDC1 amount per cell number": "inactive: 1.11"}
{"compound": "CCOC(=O)Nc1ccc(NCc2ccc(F)cc2)cc1N", "note": "[Retigabine dihydrochloride]", "relative GAG core protein HA-SDC1 amount per cell number": "inactive: 1.13"}
{"compound": "C[C@H]1C(=O)O[C@@H]2CCN3CC=C(COC(=O)[C@](C)(O)[C@]1(C)O)[C@H]23", "note": "[Crotaline]", "relative GAG core protein HA-SDC1 amount per cell number": "inactive: 0.804"}
{"compound": "COc1cc2c(cc1OC)C1CC(=O)C(CC(C)C)CN1CC2", "note": "(centres undefined) [Tetrabenazine]", "relative GAG core protein HA-SDC1 amount per cell number": "inactive: 0.682"}
{"compound": "CN(C)[C@@H]1C(=O)C(C(N)=O)=C(O)[C@@]2(O)C(=O)C3=C(O)c4c(O)ccc(Cl)c4[C@@](C)(O)[C@H]3C[C@@H]12", "note": "[Chlortetracycline HCl]", "relative GAG core protein HA-SDC1 amount per cell number": "inactive: 0.53"}
{"compound": "COC1=C[C@@H]2[C@@H]3Cc4ccc(OC)c(O)c4[C@]2(CCN3C)CC1=O", "note": "[Sinomenine]", "relative GAG core protein HA-SDC1 amount per cell number": "inactive: 0.909"}
